# ChEMBL document CHEMBL4428074, “The discovery of 2,5-isomers of triazole-pyrrolopyrimidine as selective Janus kinase 2 (JAK2) inhibitors versus JAK1 and JAK3” (Bioorg Med Chem, 2016)
# pIC50: −log10 of the molar value.
# Molecular target: Tyrosine-protein kinase JAK2 (Homo sapiens, UniProt O60674)
# Format: cell-based, Sf21
# Tyrosine-protein kinase JAK2, sequence (O60674 whole entry): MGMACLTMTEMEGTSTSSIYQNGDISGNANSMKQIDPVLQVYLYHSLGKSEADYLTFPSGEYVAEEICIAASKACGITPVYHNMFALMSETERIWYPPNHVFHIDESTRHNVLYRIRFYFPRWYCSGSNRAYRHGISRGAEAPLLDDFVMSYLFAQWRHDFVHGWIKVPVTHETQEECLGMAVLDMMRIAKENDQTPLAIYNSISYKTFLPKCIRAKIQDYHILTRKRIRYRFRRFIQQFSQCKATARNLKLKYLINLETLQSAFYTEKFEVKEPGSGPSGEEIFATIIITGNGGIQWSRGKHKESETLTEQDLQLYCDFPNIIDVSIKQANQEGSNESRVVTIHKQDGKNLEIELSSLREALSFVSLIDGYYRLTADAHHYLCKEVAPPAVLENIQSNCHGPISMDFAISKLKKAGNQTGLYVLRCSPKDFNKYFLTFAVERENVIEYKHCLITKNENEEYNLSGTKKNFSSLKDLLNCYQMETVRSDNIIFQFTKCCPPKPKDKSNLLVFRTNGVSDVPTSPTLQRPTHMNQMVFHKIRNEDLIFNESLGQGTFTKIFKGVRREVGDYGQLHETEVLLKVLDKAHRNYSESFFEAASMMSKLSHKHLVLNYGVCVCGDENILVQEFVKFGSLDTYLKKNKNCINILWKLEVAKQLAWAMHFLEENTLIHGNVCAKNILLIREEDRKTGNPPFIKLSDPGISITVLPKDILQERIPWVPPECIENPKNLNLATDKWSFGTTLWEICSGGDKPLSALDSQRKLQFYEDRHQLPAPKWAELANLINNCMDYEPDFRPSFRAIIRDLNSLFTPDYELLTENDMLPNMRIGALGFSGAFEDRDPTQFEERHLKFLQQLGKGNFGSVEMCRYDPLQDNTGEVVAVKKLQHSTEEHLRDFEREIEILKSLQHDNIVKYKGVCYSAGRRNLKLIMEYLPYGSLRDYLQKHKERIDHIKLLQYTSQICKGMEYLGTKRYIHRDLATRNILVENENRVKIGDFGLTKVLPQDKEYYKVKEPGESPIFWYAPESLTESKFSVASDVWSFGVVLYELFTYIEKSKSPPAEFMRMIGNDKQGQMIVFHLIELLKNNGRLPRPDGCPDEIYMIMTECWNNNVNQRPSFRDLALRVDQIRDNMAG
row,SMILES,pIC50
1,Cc1nn(CCCC#N)nc1-c1ncnc2[nH]ccc12,7.13
2,C=CCn1nc(C)c(-c2ncnc3[nH]ccc23)n1,6.29
3,Cc1nn(CCCCCC#N)nc1-c1ncnc2[nH]ccc12,6.78
4,COCCn1nc(C)c(-c2ncnc3[nH]ccc23)n1,6.51 to 6.68
5,Cc1nn(CC2CCC2)nc1-c1ncnc2[nH]ccc12,7.20
6,CC(C)=CCn1nc(C)c(-c2ncnc3[nH]ccc23)n1,6.10
7,Cc1nn(CCCO)nc1-c1ncnc2[nH]ccc12,6.81
8,C=C(C)Cn1nc(C)c(-c2ncnc3[nH]ccc23)n1,7.17
9,Cc1nn(CCCCC#N)nc1-c1ncnc2[nH]ccc12,7.20
10,Cc1nn(CC2CCCC2)nc1-c1ncnc2[nH]ccc12,7.14
11,Cc1nn(CCCC(F)(F)F)nc1-c1ncnc2[nH]ccc12,7.02
12,Cc1nn(CC2CC2)nc1-c1ncnc2[nH]ccc12,7.38
